Reference: PMC4336329 (PLoS ONE, 2015)
The whole screen tested about 310,000 compounds, of which about 2,200 (0.71%) showed an effect of 50% or more. The effect is printed as a negative number. The list shows a part of the results.

Biological target: human ether-à-go-go-related gene (hERG) potassium channel (human, UniProt Q12809)
Assay: primary screen, population patch clamp on CHO cells stably expressing hERG

Sequence of human ether-à-go-go-related gene (hERG) potassium channel (Q12809 whole entry, looked up): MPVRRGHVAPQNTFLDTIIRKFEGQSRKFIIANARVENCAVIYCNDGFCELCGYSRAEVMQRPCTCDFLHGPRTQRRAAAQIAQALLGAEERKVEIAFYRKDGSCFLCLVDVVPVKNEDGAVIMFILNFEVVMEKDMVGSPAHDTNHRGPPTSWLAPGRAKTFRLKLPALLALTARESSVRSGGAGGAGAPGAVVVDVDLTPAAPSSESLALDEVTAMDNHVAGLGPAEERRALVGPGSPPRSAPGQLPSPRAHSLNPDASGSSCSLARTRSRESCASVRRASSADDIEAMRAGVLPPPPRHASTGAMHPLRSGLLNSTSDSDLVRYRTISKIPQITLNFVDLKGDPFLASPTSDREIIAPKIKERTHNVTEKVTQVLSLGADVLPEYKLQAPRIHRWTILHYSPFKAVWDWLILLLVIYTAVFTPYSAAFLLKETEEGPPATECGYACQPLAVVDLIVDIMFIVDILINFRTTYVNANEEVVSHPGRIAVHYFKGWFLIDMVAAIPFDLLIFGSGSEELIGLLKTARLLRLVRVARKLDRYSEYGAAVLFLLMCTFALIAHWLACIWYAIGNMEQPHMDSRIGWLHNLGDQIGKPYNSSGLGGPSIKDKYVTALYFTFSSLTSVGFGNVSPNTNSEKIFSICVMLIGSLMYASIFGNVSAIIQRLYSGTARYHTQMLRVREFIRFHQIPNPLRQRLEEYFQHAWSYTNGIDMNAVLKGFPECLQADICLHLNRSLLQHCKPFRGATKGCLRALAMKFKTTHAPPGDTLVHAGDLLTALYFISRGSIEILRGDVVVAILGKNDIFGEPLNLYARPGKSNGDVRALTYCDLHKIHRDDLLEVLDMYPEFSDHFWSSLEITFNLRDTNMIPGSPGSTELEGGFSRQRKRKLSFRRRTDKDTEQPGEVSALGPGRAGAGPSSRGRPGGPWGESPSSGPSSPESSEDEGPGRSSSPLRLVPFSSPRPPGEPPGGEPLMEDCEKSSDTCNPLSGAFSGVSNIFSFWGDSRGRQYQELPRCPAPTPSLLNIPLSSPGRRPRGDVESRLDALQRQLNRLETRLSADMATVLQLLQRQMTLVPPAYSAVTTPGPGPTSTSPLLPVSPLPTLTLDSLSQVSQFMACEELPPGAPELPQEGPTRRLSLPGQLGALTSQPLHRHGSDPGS

Row | SMILES | hERG current change (%, negative = inhibition) at 1uM [%]
1 | CC1(c2nnc(-c3ccc(F)cc3)o2)CC(c2ccccc2)=NO1 (centres unmarked) | 10.7
2 | Cc1ccc(C(O)P(=O)(OC2CCCCC2)OC2CCCCC2)cc1 (centres unmarked) | 7.38
3 | C/C(=N\NC(=O)CSCc1ccc(Cl)cc1)c1ccc2c(c1)OCCO2 | 7.55
4 | Cc1ccc(C2CC(c3ccccc3OC(F)F)Nc3ncnn32)cc1 (centres unmarked) | 2.81
5 | COc1ccc(/C=N/NC(=O)c2ccc(C)cc2)cc1CN1CCN(c2ccc(F)cc2)CC1 | -27
6 | CCNC(=O)c1ccc(CSc2ccc(Cl)cc2)cc1 | 7.92
7 | CC(OC(=O)c1ccccc1OCc1ccc(Cl)cc1)C(N)=O (centres unmarked) | 15.2
8 | Cc1ccc(C(=O)N(CCCN(C)C)c2nc3ccc(Cl)cc3s2)cc1C.Cl | 9.34
9 | CCOc1ccc(NC(=O)Nc2cccs2)cc1 | 13.3
10 | O=C(O)c1n[nH]nc1-c1ccccc1 | 18.3
11 | O=C(COc1ccccc1Cl)Nc1ccc(S(=O)(=O)Nc2ccccn2)cc1 | 13.1
12 | CCn1c(=O)cc(SCC(=O)NCC2CCCO2)c2ccccc21 (centres unmarked) | -2.95
13 | CC1=CC2=NC(=O)CC(C)(C(=O)N(CC(=O)NC(C)(C)C)Cc3cccs3)N2C=C1 (centres unmarked) | -2.79
14 | Cc1ccc(NC(=S)N(CCN(C)C)Cc2cc3cc(C)ccc3[nH]c2=O)cc1 | 1.61
15 | O=C(COC(=O)c1cccs1)c1ccc2ccccc2c1 | -0.311
16 | NS(=O)(=O)c1ccc(CCNC(=O)c2ccccc2Cc2ccccc2)cc1 | -28.2
17 | COc1cc(C)cc(CN2CCC(Cc3ccccc3)CC2)c1O | -6.99
18 | O=C(N/N=C\c1ccccn1)c1cccc(C(=O)N/N=C\c2ccccn2)n1 | 4.23
19 | CC1CCN(C(=O)c2cc3nc(-c4ccccc4)cc(-c4ccccc4)n3n2)CC1 | -0.803

Row | SMILES | hERG current change (%, negative = inhibition) at 1uM [%]
20 | Cc1cccc2cc(CN(CC3CCCO3)C(=O)c3ccco3)c3nnnn3c12 (centres unmarked) | 5.52
21 | O=C(CNC(=O)Cc1ccc(Cl)cc1)NCc1ccco1 | 11.4
22 | CCCCn1c(=O)[nH]c(=O)c2c1nc(-c1ccc(-c3ccccc3Br)o1)n2CC | 18.8
23 | COc1ccc(-c2nc(CN3CCC(C(=O)NC4CCCC4)CC3)c(C)o2)cc1OC | -2.29
24 | COc1ccc(OC)c(NC(=O)C2CCN(c3ncccn3)CC2)c1 | 5.56
25 | CCOC(=O)c1c(C)oc2ccc(OCC(N)=O)cc12 | 15.3
26 | CNC(=O)c1c(C)nn(-c2ccc(F)c(Cl)c2)c1-c1cc(C)on1 | 7.81
27 | CCn1cc(NC(=O)Nc2ccc(OC)c(OC)c2)c(C(N)=O)n1 | 0.0335
28 | COc1ccc(CCNC(=O)C(=O)NCC2OCCN2S(=O)(=O)c2ccc(Cl)cc2)cc1OC (centres unmarked) | 5.39
29 | Cc1ccc(CS(=O)(=O)Cc2ccc(C(=O)N3CCC4(CC3)OCCO4)o2)cc1 | -1.4
30 | c1ccc(-c2nnc(SCc3cn4ccsc4n3)o2)cc1 | 3.34
31 | CCOc1ccc(S(=O)(=O)NCc2ccncc2)cc1 | 3.83
32 | C=CCn1c(SCC(=O)c2ccc(NS(=O)(=O)c3ccccc3)cc2)nnc1-c1cccs1 | -2.03
33 | Cn1c(C=O)c(C#CC(C)(C)O)c2ccccc21 | 21.4
34 | COc1cccc(C2C(C(=O)Nc3nc4ccccc4s3)=C(C)NC3=C2C(=O)CC(C)(C)C3)c1OC (centres unmarked) | 12.3
35 | CC1(C)CC(=O)c2c(-c3cccnc3)n[nH]c2C1 | 2.86
36 | CCOc1ccc(-n2c(SCc3cc(=O)oc4cc(C)ccc34)nnc2-c2cccnc2)cc1 | -30.2
37 | CC(c1ccc(F)cc1)n1c(-c2cccs2)n[nH]c1=S (centres unmarked) | 7.94
38 | O=C(NCC1CCCO1)c1cc(C(=O)C2CCCCC2)c[nH]1 (centres unmarked) | 18

Row | SMILES | hERG current change (%, negative = inhibition) at 1uM [%]
39 | Cc1nc(-c2ccncc2)sc1C(=O)Nc1ccc(Cl)cc1 | 8.94
40 | CC(C)CNC(=O)COC(=O)Cc1ccc(Cl)cc1 | 12.9
41 | Cc1noc(C)c1S(=O)(=O)N1CCCC(C(=O)N2CCC(C)CC2)C1 (centres unmarked) | 8.93
42 | Cc1c(OC(C)C(=O)NC(Cc2c[nH]c3ccc(O)cc23)C(=O)O)ccc2c1oc(=O)c1ccccc12 (centres unmarked) | 4.58
43 | COc1ccc(CNC(=O)C(C)n2ccc3cc(S(=O)(=O)N4CCCCCC4)ccc32)cc1 (centres unmarked) | 10
44 | CCOC(=O)c1c(C)c(C(=O)Nc2cc(F)ccc2F)c(C)n1C | 13.7
45 | COc1ccc(-n2nc(C(=O)Nc3ccc4c(c3)OCO4)c3c4ccccc4n(C)c3c2=O)cc1 | 5.92
46 | COc1cc(/C=C/C(=O)Nc2cccc(S(=O)(=O)N3CCOCC3)c2)ccc1OCC#N | 7.98
47 | CC(C)CCN1CCN(CC#Cc2ccccc2)CC1CCO (centres unmarked) | 4.3
48 | COc1cc(C2C(C(=O)c3cccs3)=C(O)C(=O)N2c2cc(C)on2)ccc1O (centres unmarked) | 2.84
49 | CCOc1ccc(-c2[nH]ncc2-c2ccccc2)c(O)c1 | 15.5
50 | CCn1c(SCC(=O)Nc2ccccc2Cl)nnc1C1CC1 | 18.3
51 | Cc1onc(-c2ccccc2)c1NC(=O)N(CCC#N)Cc1cccs1 | 5.56
52 | CCN(CC)S(=O)(=O)c1cc(C(=O)NC2=NCCS2)ccc1Cl | 8.61
53 | CC(C)c1nc(C#N)c(NN)o1 | 13.6
54 | COc1ccccc1NC(=O)c1ccc(CSc2ccccc2)o1 | -11.3
55 | Cc1ccc(NC(=O)c2nc[nH]c2C(=O)N[C@H](C)c2ccccc2)cc1 | 17.7
56 | COc1ccc(NC2=Nc3ccccc3N3C2=Nc2c(c(C)nn2-c2ccc(C)cc2)C3c2cccnc2)cc1 (centres unmarked) | 17.7
